# According to PubChem BioAssay AID588342 (National Center for Advancing Translational Sciences (NCATS), 2011):
# The whole screen tested about 360,000 compounds, of which about 25,000 (6.9%) were called active. This list was built around the results that the source calls inconclusive (neither active nor inactive); the mix of calls is not that of the screen. Calls come from the whole dose curve; as a rule, active = well fitted inhibition curve with a large enough effect; inconclusive = small, poorly fitted or top-dose-only effect; inactive = flat fitted curve, though single readings scatter. Where the call is inconclusive, the potency comes from a doubtful curve fit.
# Molecular target: Luciferin 4-monooxygenase (Photinus pyralis) (UniProt P08659)
# Test: qHTS profiling assay for firefly luciferase inhibitor/activator using purifed enzyme and Km concentrations of substrates (counterscreen for miR-21 project); note: nearly all actives have a fitted effect of over 55% in size
# Conditions: purified FLuc, luminescence inhibition; series mostly up to 57.5 µM
# In short: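 Purified P. pyralis luciferase, 10 nM final, with Km-level 10 uM D-luciferin and 10 uM ATP in 50 mM Tris acetate pH 7.5, 10 mM Mg acetate, 0.01% Tween-20, 0.05% BSA; 6-point qHTS titration about 60 µM downward; luminescence read.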
# Potency is the fitted concentration of half-maximal effect; tags give direction and shape of the fitted curve.
# Chain of UniProt P08659 (P08659 whole entry, looked up): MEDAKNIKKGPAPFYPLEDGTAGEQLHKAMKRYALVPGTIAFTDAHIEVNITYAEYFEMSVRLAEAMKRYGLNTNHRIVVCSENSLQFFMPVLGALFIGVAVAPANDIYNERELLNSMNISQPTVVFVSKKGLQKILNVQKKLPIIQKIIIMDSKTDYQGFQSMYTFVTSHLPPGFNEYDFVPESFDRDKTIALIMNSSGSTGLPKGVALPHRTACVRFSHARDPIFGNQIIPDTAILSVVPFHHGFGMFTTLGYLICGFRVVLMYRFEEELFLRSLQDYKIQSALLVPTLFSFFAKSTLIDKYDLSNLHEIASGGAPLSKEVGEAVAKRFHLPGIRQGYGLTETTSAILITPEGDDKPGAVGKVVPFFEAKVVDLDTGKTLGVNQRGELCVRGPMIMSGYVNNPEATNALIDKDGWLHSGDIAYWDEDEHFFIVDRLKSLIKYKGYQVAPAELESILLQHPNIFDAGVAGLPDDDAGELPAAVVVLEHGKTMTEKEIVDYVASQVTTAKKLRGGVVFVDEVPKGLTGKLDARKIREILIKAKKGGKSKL
row,Structure (SMILES),Potency
1,O=C(c1ccc(C#Cc2ccccc2)o1)N1CCN(c2ccccn2)CC1,"inconclusive: 26.9 µM [inhibitor, partial curve, poor fit]"
2,CCOC1=C/C(=C/c2c(N)n3nc(-c4ccccc4)sc3nc2=O)C=CC1=O,"inconclusive: 23.9 µM [inhibitor, single point]"
3,COc1ccc(NC(=O)c2cc(-c3ccc(OC)c(OC)c3)nc3ccccc23)c(OC)c1,active: 7.57 µM
4,COc1ccc(C(=O)Oc2c(OC)cc(C(=S)N3CCOCC3)cc2OC)cc1OC,"inconclusive: 37.9 µM [inhibitor, partial curve, poor fit]"
5,COc1ccc(-c2nnc(SCC(=O)NC3CCCCC3)o2)cc1,"inconclusive: 37.9 µM [inhibitor, partial curve, poor fit]"
6,Cc1c(Cl)cccc1-n1nnc(-c2nc(-c3ccc4c(c3)OCO4)no2)c1C,active: 3.01 µM
7,CC(C)c1ccc(NC2CCCN(C(=O)c3ccco3)C2)cc1 (stereo not drawn),"inconclusive: 37.9 µM [inhibitor, single point]"
8,C=CCN(C)NC(=S)Nc1ccccc1,inactive
9,C=CCNC(=O)COc1ccc(Br)cc1Cl,active: 16.9 µM
10,CCCc1ccc(-c2cc(C(=O)NCCc3ccc(S(N)(=O)=O)cc3)c3ccccc3n2)cc1,active: 0.675 µM
11,O=c1[nH][nH]cc1C=Nc1ccccc1Cl,"inconclusive: 16.9 µM [inhibitor, partial curve]"
12,CSc1nc(N)nc(-c2cccs2)c1C#N,"inconclusive: 21.3 µM [inhibitor, single point]"
13,Cn1c(=O)[nH]c2nnc(-c3ccc(Cl)c(Cl)c3)nc2c1=O,active: 3.38 µM
14,O=c1oc2ccccc2c(Nc2cc3ccccc3cc2O)c1[N+](=O)[O-],active: 12 µM
15,O=C(Cn1cc(SCc2ccc(Cl)cc2)c2ccccc21)N1CCCC1,"inconclusive: 19 µM [inhibitor, partial curve]"
16,C=CCn1c(-c2cc3cccc(OC)c3o2)n[nH]c1=S,"inconclusive: 30.1 µM [inhibitor, partial curve, poor fit]"
17,O=C(O)CSc1nc2sc3c(c2c(=O)n1Cc1ccccc1)CCCCC3,"inconclusive: 33.8 µM [inhibitor, single point]"
18,Cc1cc2nc3c(nc2cc1C)C1(C(=O)O)CCC3(C)C1(C)C (stereo not drawn),"inconclusive: 26.9 µM [inhibitor, partial curve, poor fit]"
19,COc1ccc(C2CC(c3ccccc3)=NN2C(=O)COC(=O)c2cc(S(=O)(=O)N3CCOCC3)ccc2F)cc1 (stereo not drawn),inactive
20,CN(CC(=O)Nc1ccccc1C(F)(F)F)C(=O)c1ccc(-c2ccc(Cl)cc2)o1,"inconclusive: 10.7 µM [inhibitor, partial curve, poor fit]"
21,CSc1ccc(/C=C(/NC(=O)c2ccccc2)C(=O)NCCCn2ccnc2)cc1,inactive
22,C/C(=N\NC(=S)Nc1ccc(C)cc1)c1cccc(N)c1,"inconclusive: 15.1 µM [inhibitor, partial curve]"

row,Structure (SMILES),Potency
1,CCCS(=O)(=O)N1CCCC(c2nc(-c3ccc(OC)cc3)no2)C1 (stereo not drawn),"inconclusive: 37.9 µM [inhibitor, partial curve, poor fit]"
2,COc1cc(/C=N/NC(=O)c2cc(C)oc2C)cc(OC)c1OC,"inconclusive: 21.3 µM [inhibitor, single point]"
3,Cc1ccccc1Nc1c(-c2ccc(O)cc2)nc2c(C)cccn12,"inconclusive: 26.9 µM [inhibitor, partial curve, poor fit]"
4,O=C(c1ccc(F)c(F)c1)N1CCCc2ccccc21,inactive
5,CC1CCN(C(=O)CCc2nnc(-c3ccccc3)o2)CC1,active: 15.1 µM
6,NC(=O)CC[C@@H]1NC(=O)[C@@H]2CCCN2C(=O)c2cc([N+](=O)[O-])cc(F)c2NCCC[C@@H](C(N)=O)NC1=O,inactive
7,O=Cc1ccc(OCc2nnc(-c3ccccc3Br)o2)cc1,"inconclusive: 21.3 µM [inhibitor, partial curve, poor fit]"
8,CCCN1CCC(=O)N(CCSc2ccccc2)CC1,"inconclusive: 19 µM [inhibitor, partial curve, poor fit]"
9,CCC(C(=O)Nc1ccc(F)cc1F)n1nc(-c2ccccc2)c2c(c1=O)CCCC2 (stereo not drawn),inactive
10,COc1cccc2cc(C(=O)N3CCN(c4ccccn4)CC3)c(=O)oc12,"inconclusive: 37.9 µM [inhibitor, partial curve, poor fit]"
11,C/C(=C\c1ccccc1)C(=O)Nc1ccc(Cl)cn1,"inconclusive: 2.39 µM [inhibitor, full curve, poor fit]"
12,O=C(OCC(=O)N1CCN(C(=O)c2ccco2)CC1)c1ccccc1Cc1ccccc1,"inconclusive: 26.9 µM [inhibitor, single point]"
13,O=C(O)COc1ccc2oc3c(c2c1)CCCC3,"inconclusive: 37.9 µM [inhibitor, partial curve, poor fit]"
14,COCCCNC(=O)C1CCN(C(=O)c2ccc(-n3ccc4ccccc43)s2)CC1,"inconclusive: 37.9 µM [inhibitor, single point]"
15,Cc1nc(-c2ccc(Cl)cc2)sc1C(=O)CBr,"inconclusive: 23.9 µM [inhibitor, partial curve, poor fit]"
16,O=C(c1cc(-c2cccc(Cl)c2)on1)N1CCCCCC1,active: 10.7 µM
17,CCC(NC(=O)Cc1c(C)c2ccc(OC)c(C)c2oc1=O)C(=O)NC(Cc1ccc(Cl)cc1)C(=O)O (stereo not drawn),"inconclusive: 23.9 µM [inhibitor, single point]"
18,Cc1cccc(NC(=O)CCn2ccnc2C)c1,"inconclusive: 26.9 µM [inhibitor, partial curve, poor fit]"
19,C/C(=N\NC(=O)c1ccc(N(C)C)cc1)c1cccnc1,"inconclusive: 26.9 µM [inhibitor, single point]"
20,Clc1ccc(-c2c[nH]c3ccccc23)nn1,"inconclusive: 9.53 µM [inhibitor, partial curve, poor fit]"
21,CC(=O)c1ccc(NC(=O)CSc2ccc(-c3ccco3)nn2)cc1,"inconclusive: 9.53 µM [inhibitor, partial curve]"
